Results taken from US20240239894A1, “THERAPEUTIC BINDING MOLECULES” (MedImmune Limited, priority 2020, published 2024).

Assays:
[1] = Serum stability (immunocapture, rLCMS); assay type: in vitro ADME; details: human serum
Procedure: (§1) The stability of E02-GL-SG3932 in cynomolgus monkey, mouse, and rat serum was evaluated using immunoprecipitation followed by reduced reverse phase mass spectrometry (rLCMS). […] The stability of E02-GL-SG3932 in human serum was evaluated by immunocapture using human B7-H4 coated resin, followed by rLCMS. Measurements indicate that drug loss after incubation in human serum was modest, with 81% of SG3924 remaining attached to E02-GL-SG3932 at day 15.

[2] = tested on: HT29 xenograft (B7-H4 negative); assay: Xenograft efficacy; assay type: in vivo, CB-17 SCID mice; details: single IV dose at 10 mg/kg, vs vehicle
Procedure: (§2) The antitumor activity of antibody intermediate E02-INT and E02-GL-SG3932 was investigated in human tumor xenograft mouse models using immunodeficient CB-17 SCID mice.
(§3) E02-GL-SG3932 was first evaluated in a pair of colon cancer cell line xenograft models in two separate studies; HT29, which is B7-H4 negative, and HT29-huB7-H4 Clone 26, which is derived from the HT29 cell line and engineered to express human B7-H4. In both studies, animals were injected SC with either the HT29 or HT29-huB7-H4 Clone 26 cells and after tumors grew in volume to a mean of 178 mm3 (HT29) or 194 mm3 (HT29-huB7-H4 Clone 26), animals were randomized and each mouse received an IV injection of either E02-GL-SG3932 or control articles.

[3] = tested on: HT29-huB7-H4 Clone 26 xenograft; assay: Xenograft efficacy; assay type: in vivo, CB-17 SCID mice
Procedure: as §2, §3

[4] = tested on: B7-H4 negative HT29 cell line; assay: In-vitro cytotoxicity (CellTiter-Glo); assay type: cell-based, human
Procedure: The effect of E02-GL-SG3932 treatment on cell viability was determined using a target-negative human colon cancer cell line HT29, the engineered human colon cancer cell line HT29-huB7-H4 Clone 26, and a human breast cancer cell line, MX-1, using a CellTiter-Glo assay.

Hydrophobicity (HIC) = assay type: physicochemical
Source text: (§4) The cleavable mal-PEG8-val-ala linker-SG3932 linker-warhead ADC offers the widest relative TI and compares favorably to benchmark. The four comparative linker-warheads are provided below.

[5] = tested on: MX-1 breast cancer xenograft; assay: Xenograft efficacy; assay type: in vivo, CB-17 SCID mice
Procedure: as §2
The effect of E02-GL-SG3932, the isotype-matched control ADC NIP228-SG3932, and E02-INT, the antibody intermediate of E02-GL-SG3932 was evaluated in the MX-1 breast cancer xenograft model. Animals were injected SC with MX-1 cells and after tumors grew in volume to a mean of 270 mm3, animals were randomized and each mouse received an IV injection of test or control articles.

[6] = tested on: non-transfected Ad293 cells; assay: In vitro cytotoxicity (CellTiter-Glo); assay type: cell-based; details: six days
Source text: The clone E02-GL was conjugated to the topoisomerase I payload SG3932 at an average Drug Antibody Ratio (DAR) of 8 (providing E02-GL-SG3932) and tested for the ability to target and kill both human B7-H4 transfected and non-transfected Ad293 cells (e.g. the latter representing a negative control). The antibody NIP228 conjugated to SG3932 was used as a control.
Cell lines were detached from tissue culture flasks by TrypLE Express (Gibco, Paisley, UK), pelleted by centrifugation, and resuspended in growth media (RPMI-1640, 10% FBS). Viable cells were counted by trypan blue exclusion using a Vi-CELL XR Cell Viability Analyzer (Beckman Coulter Life Sciences, Indianapolis, Indiana). Cell densities were adjusted to 3.33×10^4 cells/mL in growth media. […]
ADCs (e.g. NIP228-SG3932 and E02-GL-SG3932) were diluted into growth media (RPMI-1640, 10% FBS) at a concentration of 240 μg/mL. […] Cells were cultured in a humidified tissue culture incubator at 37° C. in 5% CO2 for six days at which time cell viability was assessed using CellTiter-Glo® assay (Promega, Southampton, UK) according to the manufacturer's protocol. Luminescence was measured using an Envision multilabel plate reader (Perkin Elmer, Seer Green, UK). […]

MX1 = assay: In vitro cytotoxicity; assay type: cell-based, human; details: first value of cell
Source text: as §4

[7] = tested on: HT29-huB7-H4 Clone 4 and HT29-huB7-H4 Clone 26; assay: Flow cytometry binding; assay type: cell-based, human
Source text: (§5) Flow cytometry was used to measure binding of antibody E02-INT and E02-GL-SG3932 to the human breast cancer cell lines MX-1 and MDA-MB-468, and to engineered HT29 colon cancer cells stably expressing human B7-H4.

MX-1 cells = assay: Flow cytometry binding; assay type: cell-based, human; details: endogenously-expressed B7-H4
Source text: as §5

MDA-MB-468 cells = assay: Flow cytometry binding; assay type: cell-based, human; details: endogenously-expressed B7-H4
Source text: as §5

[8] = Serum stability (immunoprecipitation, rLCMS); assay type: in vitro ADME
Procedure: as §1

B1: E02-GL-SG3932: E02-GL conjugated via cleavable mal-PEG8-val-ala linker to TOP1i warhead, DAR of 8 (conjugate)
heavy: QVQLQQWGAGLLKPSETLSLACTVYGGSFSGYYWNWIRQPPGKGLEWIGEINHSGSTSYNPSLKSRVTISVDTSKNQFSLKLSSVTAADTAVYYCARVLYNWNVDSWGQGTLVTVSSASTKGPSVFPLAPSSKSTSGGTAALGCLVKDYFPEPVTVSWNSGALTSGVHTFPAVLQSSGLYSLSSVVTVPSSSLGTQTYICNVNHKPSNTKVDKRV[human IgG1 Fc cut from this listing]
light: DIQMTQSPSSLSASVGDRVTITCRASQDIRNDVGWYQQKPGKAPKRLIYAASRLQSGVPSRFSGSGSGTEFTLTISSLQPEDFATYYCLQHNSYPRTFGQGTKVEIKRTVAAPSVFIFPPSDEQLKSGTASVVCLLNNFYPREAKVQWKVDNALQSGNSQESVTEQDSKDSTYSLSSTLTLSKADYEKHKVYACEVTHQGLSSPVTKSFNRGEC
SG3924 remaining attached at day 15 [1]: 81% | TGI [2]: 12% | TGI relative to vehicle ([3]; single IV dose at 1.25 mg/kg): 31% | TGI relative to vehicle ([3]; single IV dose at 2.5 mg/kg): 37% | TGI relative to vehicle ([3]; single IV dose at 5 mg/kg): 42% | activity compared with isotype-matched control ADC (NIP228-SG3932) [4]: no difference in activity | Hydrophobicity (HIC), Retention time (Hydrophobicity (HIC)): 3.41 min | TGI ([5]; single IV dose at 1.25 mg/kg): 98% | TGI ([5]; single IV dose at 2.5 mg/kg): 96% | cell killing [6]: No significant killing | In vitro cytotoxicity IC50 MX1 (MX1): 8.81 ng/mL | cellular binding [7]: bound similarly | cellular binding (MX-1 cells): bound | cellular binding (MDA-MB-468 cells): bound | SG3924 remaining attached at day 15 ([8]; cynomolgus monkey serum): 82.0% | SG3924 remaining attached at day 15 ([8]; mouse serum): 84.5% | SG3924 remaining attached at day 15 ([8]; rat serum): 83.5%
